# Measured values from PubChem BioAssay AID1347428 (National Center for Advancing Translational Sciences (NCATS), 2020).
# The campaign covered roughly 91,000 compounds. About 290 (0.32%) were called active. Inconclusive means that the source gave no clear call. Such entries were picked first, then a sample of the others. Calls follow the shape of the dose curve; as a rule, active = well fitted inhibition curve with a large enough effect; inconclusive = small, poorly fitted or top-dose-only effect; inactive = no such curve, though single readings can be large or run the other way. Potencies beside an inconclusive call are fits to weak or partial responses and may not hold up.
# Target: Single-stranded DNA cytosine deaminase (Homo sapiens) (UniProt Q9GZX7)
# Test: Primary qHTS assay for inhibitors of Activation Induced Cytidine Deaminase (AID): AID signal; also: nearly all actives have a fitted effect of over 25% in size
# Details: AID deamination FRET fluorescence, UDG-coupled, 4 h; series mostly up to 115 µM
# Potency is read from the fitted curve at half-maximal effect; tags tell the direction and shape of the fitted curve.
# Chain of UniProt Q9GZX7 (Q9GZX7 whole entry, looked up): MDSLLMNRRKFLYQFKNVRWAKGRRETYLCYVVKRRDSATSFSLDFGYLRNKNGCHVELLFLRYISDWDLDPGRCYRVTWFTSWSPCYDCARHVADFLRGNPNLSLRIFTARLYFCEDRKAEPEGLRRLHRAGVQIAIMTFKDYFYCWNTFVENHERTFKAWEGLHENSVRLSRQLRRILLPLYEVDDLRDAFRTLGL
row,Compound,Potency
1,CSc1ccc(/C=N/Nc2ccc(Cl)c(Cl)c2)cc1,inactive
2,Cc1ccc(Nc2ncc(C(=O)N3CCN(c4ccc(F)cc4)CC3)c3ccccc23)cc1Cl,"inconclusive: 39.8 µM [inhibitor, full curve, poor fit]"
3,Cc1ccsc1CN(C(=O)c1oc2ccc(F)cc2c1C)C1CCS(=O)(=O)C1 (centres undefined),"inconclusive: 20 µM [inhibitor, full curve, poor fit]"
4,COC(=O)C1=C(C)NC(C)=C(C(=O)OCCN(C)Cc2ccccc2)C1c1cccc([N+](=O)[O-])c1 (centres undefined),"inconclusive: 22.4 µM [inhibitor, partial curve, poor fit]"
5,CCCC(C)NC(=O)Nc1cc(C(=O)NC2CC2)ccc1C (centres undefined),inactive
6,CCC(C)Cn1c(/C=C/c2ccccc2)nc2ccccc21 (centres undefined),"inconclusive: 44.7 µM [inhibitor, partial curve, poor fit]"
7,N#Cc1ccc(NC(=O)CNc2cc(S(=O)(=O)N3CCCCC3)ccc2N2CCCCC2)cc1,inactive
8,CCOc1ccc(-c2cn(-c3ccc(C)cc3)c(SCC(=O)Nc3ccc(C)cc3)n2)cc1,"inconclusive: 89.1 µM [inhibitor, partial curve, poor fit]"
9,Cc1ccc(S(=O)(=O)N2CCc3cc(C(=O)Nc4ccc(C(F)(F)F)cc4)ccc32)cc1,"inconclusive: 2.82 µM [inhibitor, full curve, poor fit]"
10,COc1ccc(CCNC(=O)CSc2cn(CCNC(=O)c3cccc(C(F)(F)F)c3)c3ccccc23)cc1OC,"inconclusive: 56.2 µM [inhibitor, partial curve, poor fit]"
11,Cc1noc(C)c1COc1cccc(C(=O)Nc2ccc(S(=O)(=O)NCc3ccco3)cc2)c1,inactive
12,COc1ccc(-n2ncc3c2ncn2nc(COc4ccc(Cl)cc4)nc32)cc1,"inconclusive: 17.8 µM [inhibitor, full curve]"
13,CCOc1ccccc1NC(=O)C(CC)Sc1nc2ncccc2[nH]1 (centres undefined),inactive
14,CCN(CC)C(=O)c1sc2c(c1C)c(=O)n(-c1ccc(Cl)c(Cl)c1)c(=O)n2Cc1cc(=O)n2ccccc2n1,active: 89.1 µM
15,CC(=O)Nc1ccc(S(=O)(=O)N2CCC(c3nnc(-c4ccc(C)cc4)o3)CC2)cc1,"inconclusive: 89.1 µM [inhibitor, single point]"
16,CCOc1ccc2nc(N3CCC(C(=O)Nc4ccccc4CC)CC3)sc2c1,"inconclusive: 100 µM [inhibitor, single point]"
17,CC1CN(C(=O)N2CCC(C(=O)N3CCN(c4ccccc4)CC3)CC2)c2cc(Cl)ccc2O1 (centres undefined),"inconclusive: 50.1 µM [inhibitor, partial curve, poor fit]"
18,CSc1cccc(Nc2cc(C(=O)NCCc3ccc(Cl)cc3)c3ccccc3n2)c1,"inconclusive: 56.2 µM [inhibitor, partial curve, poor fit]"
19,Cc1cc(N2CCCCC2)nc2ccc(NC(=O)/C=C/c3ccc(OC(C)C)cc3)cc12,"inconclusive: 89.1 µM [inhibitor, single point]"
20,Cc1ccc(NC(=O)CSc2ncc(S(=O)(=O)c3ccc(C(C)C)cc3)c(=O)[nH]2)cc1C,"inconclusive: 56.2 µM [inhibitor, partial curve, poor fit]"

row,Compound,Potency
1,Cc1ccc(C(=O)c2cn(Cc3cccc(C)c3)c3nc(C)ccc3c2=O)cc1,"inconclusive: 79.4 µM [inhibitor, partial curve, poor fit]"
2,COc1ccc(/C=C/C(=O)OCc2cc(=O)oc3c(C)c(C)ccc23)cc1OC,"inconclusive: 56.2 µM [inhibitor, partial curve, poor fit]"
3,Cc1ccc(Nc2c(-c3ccc(Cl)cc3)nc3sccn23)c(C)c1,"inconclusive: 35.5 µM [inhibitor, partial curve, poor fit]"
4,COc1cccc(N2CCN(C(=O)CCCn3c(=O)[nH]c4ccc(Br)cc4c3=O)CC2)c1,"inconclusive: 70.8 µM [inhibitor, single point]"
5,CCc1ccc2ncc(S(=O)(=O)c3ccc(C)c(C)c3)c(N3CCOCC3)c2c1,"inconclusive: 35.5 µM [inhibitor, partial curve, poor fit]"
6,COc1ccc(-c2onc(C)c2C)cc1S(=O)(=O)NCC(C)c1ccccc1 (centres undefined),"inconclusive: 79.4 µM [inhibitor, partial curve, poor fit]"
7,O=c1ccc2cc(S(=O)(=O)NCc3ccc(Br)cc3)ccc2[nH]1,"inconclusive: 79.4 µM [inhibitor, single point]"
8,CCc1nc(Nc2ccc(F)c(Cl)c2)c2c3c(sc2n1)CCCC3,"inconclusive: 44.7 µM [inhibitor, partial curve, poor fit]"
9,Cc1nc2ccccc2c(C)c1CC(=O)O,inactive
10,CCCN(C(=O)Cc1nc(-c2ccc(OC)cc2)no1)c1ccccc1C,"inconclusive: 35.5 µM [inhibitor, partial curve, poor fit]"
11,Cc1cc(C)c(OCC(=O)N(Cc2ccc(N(C)C)cc2)CC2CCCO2)c(C)c1 (centres undefined),"inconclusive: 70.8 µM [inhibitor, partial curve, poor fit]"
12,CC(=O)N1CCc2c(sc3c2c(=O)n(Cc2ccccc2)c(=O)n3Cc2ccccc2C)C1,"inconclusive: 25.1 µM [inhibitor, partial curve, poor fit]"
13,COC(=O)CCC(NC(=O)C12CC3CC(CC(C3)C1)C2)C(=O)OC (centres undefined),inactive
14,Cc1cccc(NC(=O)C2CCCN(S(=O)(=O)c3ccc4c(c3)oc(=O)n4C)C2)c1C (centres undefined),"inconclusive: 56.2 µM [inhibitor, partial curve, poor fit]"
15,N#Cc1cccc(NC(=S)NCCc2ccccc2)c1,inactive
16,Cc1cccc(-c2nc(S(=O)(=O)c3ccc(Cl)cc3)c(N3CCCCCC3)o2)c1,"inconclusive: 56.2 µM [inhibitor, partial curve, poor fit]"
17,CCN(CC)c1nc2c(S(=O)(=O)c3ccccc3)nnn2c2ccc(Cl)cc12,"inconclusive: 8.91 µM [inhibitor, full curve, poor fit]"
18,CC1=CC(=C(C#N)C#N)CC(C)(C)C1,inactive
19,Cc1ccc(C(=O)NCC(c2ccc3c(c2)OCO3)N2CCN(c3ccc(F)cc3)CC2)cc1 (centres undefined),"inconclusive: 28.2 µM [inhibitor, full curve, poor fit]"
20,CCOc1ccccc1CN1CCCCCC1c1sccc1C (centres undefined),inactive

row,Compound,Potency
1,Cc1ccc(OCC(=O)N(Cc2ccc(Cl)cc2)Cc2ccco2)cc1C,"inconclusive: 50.1 µM [inhibitor, partial curve, poor fit]"
2,Cc1cccc(N2CCN(C(=O)Cn3ncc4c3-c3cc(C)ccc3OC4)CC2C)c1 (centres undefined),"inconclusive: 50.1 µM [inhibitor, partial curve, poor fit]"
3,CCC(C(=O)NN1CCCCC1)c1ccccc1 (centres undefined),inactive
4,COC(=O)c1ccc(OCC2c3cc(OC)c(OC)cc3CCN2C(=O)c2ccccc2C)cc1 (centres undefined),"inconclusive: 10 µM [inhibitor, full curve, poor fit]"
5,COC(=O)c1c(COc2ccc(C)nc2[N+](=O)[O-])nc2ccccc2c1-c1ccccc1,"inconclusive: 44.7 µM [inhibitor, partial curve, poor fit]"
6,CSc1nc(Nc2ccc(C)cc2C)cc(-c2ccccc2)n1,"inconclusive: 35.5 µM [inhibitor, partial curve, poor fit]"
7,Cc1nc2cc(C(=O)NCCC3=CCCCC3)ccc2n1-c1ccc(Br)cc1,"inconclusive: 44.7 µM [inhibitor, full curve, poor fit]"
8,COc1ccc(C2=NC3(CCCCCC3)N(CC(=O)Nc3ccc(C)c(C)c3)C2=O)cc1,"inconclusive: 35.5 µM [inhibitor, full curve, poor fit]"
9,Cc1ccc2ncc(S(=O)(=O)c3ccccc3)c(N3CCCCC3C)c2c1 (centres undefined),"inconclusive: 3.55 µM [inhibitor, full curve, poor fit]"
10,CCN(C(=O)c1sc2cc(OC)ccc2c1Cl)c1ccccc1,"inconclusive: 17.8 µM [inhibitor, full curve, poor fit]"
11,COc1ccccc1OCCCCn1c(C2CC(=O)N(c3ccccc3Cl)C2)nc2ccccc21 (centres undefined),"inconclusive: 89.1 µM [inhibitor, single point]"
12,Cc1cc(C)cc(NC(=O)C2CCCN(c3cnccn3)C2)c1 (centres undefined),"inconclusive: 89.1 µM [inhibitor, partial curve, poor fit]"
13,O=C(COc1ccccc1Cl)N(Cc1ccco1)Cc1ccco1,"inconclusive: 56.2 µM [inhibitor, partial curve, poor fit]"
14,Cc1cccc(-c2noc(-c3cn(CC(=O)NCc4cccs4)c4nc(C)ccc4c3=O)n2)c1,"inconclusive: 50.1 µM [inhibitor, partial curve, poor fit]"
15,Cc1cccc(N2CCN(C(=O)COCc3cc(-c4ccc5c(c4)OCO5)on3)CC2)c1C,"inconclusive: 12.6 µM [inhibitor, full curve, poor fit]"
16,CC(C)Cc1nc2cccnc2n1C1CCN(S(=O)(=O)c2ccc(Cl)s2)CC1,"inconclusive: 44.7 µM [inhibitor, partial curve, poor fit]"
17,COc1cccc(-c2ccnc3c(-c4ccccc4)c(C)nn23)c1,"inconclusive: 89.1 µM [inhibitor, partial curve, poor fit]"
18,CCc1ccccc1NC(=O)Cn1cc(C(=O)c2ccc(Cl)cc2)c(=O)c2ccc(C)nc21,"inconclusive: 100 µM [inhibitor, single point]"
19,O=C1OC(C(=O)OCc2ccc3c(c2)OCO3)Cc2ccccc21 (centres undefined),inactive
